Assay results from the supplement of paper PMC4967469.
A lower IC50 marks a more sensitive line; where the fit passes the top or lowest dose, that dose stands as a limit. For AUC the same curve is integrated over the 256-fold range of doses and scaled to a fraction: 1 means no effect, lower means more sensitive. For some of these results: Any top dose called inferred was derived from the fitted curves, not read from the paper. For some of these results: An entry number marks a drug with two screens in the source, which often give different values.

Key:
Assay in all cases: Viability of human cancer cell lines after 72 h of drug (GDSC screen)
ZM-447439 = compound: COc1cc2c(Nc3ccc(NC(=O)c4ccccc4)cc3)ncnc2cc1OCCCN1CCOCC1 [ZM-447439]; conditions: top dose inferred
Experimental: (§1)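 Human cancer cell lines in 384-well plates, medium with 10% serum, drug for 72 h over a 256-fold dose range (nine 2-fold or five 4-fold steps up to the top dose). Adherent lines were fixed and stained with the nucleic acid dye Syto60, suspension lines read with resazurin; signal relative to control wells, capped at 0 and 100%. One two-parameter sigmoid per drug and line, fitted in a mixed model over all curves with the slope shared within a line.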

AZD6244 = compound: Cn1cnc2c(F)c(Nc3ccc(Br)cc3Cl)c(C(=O)NOCCO)cc21 [AZD6244]; conditions: top dose 4 µM; screen: GDSC drug entry 1498; top dose inferred
Experimental: as §1

EX-527 = compound: NC(=O)C1CCCc2c1[nH]c1ccc(Cl)cc21 [EX-527]; conditions: top dose 20 µM
Experimental: as §1

YM201636 = compound: Nc1ccc(C(=O)Nc2cccc(-c3nc(N4CCOCC4)c4oc5ncccc5c4n3)c2)cn1 [YM201636]; conditions: top dose 5.12 µM; top dose inferred
Experimental: as §1

AS601245 = compound: N#CC(c1ccnc(NCCc2cccnc2)n1)c1nc2ccccc2s1 [AS601245]; conditions: top dose 8 µM; top dose inferred
Experimental: as §1

| Cell Line | AUC (ZM-447439) | IC50 (ZM-447439) [µM] | AUC (AZD6244) | IC50 (AZD6244) [µM] | AUC (EX-527) | IC50 (EX-527) [µM] | AUC (YM201636) | IC50 (YM201636) [µM] | AUC (AS601245) | IC50 (AS601245) [µM] |
| --- | --- | --- | --- | --- | --- | --- | --- | --- | --- | --- |
| A172 (glioma, adherent, top dose 2 µM) | 0.82 | 1.1 |  |  |  |  |  |  |  |  |
| D-336MG (glioma, adherent, top dose 2 µM) | 0.934 | > 2 |  |  |  |  |  |  |  |  |
| K5 (thyroid, adherent, top dose 2 µM) | 0.978 | > 2 |  |  |  |  |  |  |  |  |
| KYM-1 (rhabdomyosarcoma, adherent, top dose 2 µM) | 0.991 | > 2 |  |  |  |  |  |  |  |  |
| LCLC-103H (large cell lung carcinoma, adherent, top dose 2 µM) | 0.965 | > 2 |  |  |  |  |  |  |  |  |
| LU-65 (large cell lung carcinoma, suspension, top dose 4 µM) | 0.987 | > 4 |  |  |  |  |  |  |  |  |
| MFE-319 (endometrium, adherent, top dose 2 µM) | 0.906 | > 2 |  |  |  |  |  |  |  |  |
| SNU-449 (liver, adherent) |  |  | 0.815 | 2.46 | 0.986 | > 20 | 0.938 | > 5.12 | 0.78 | 3.62 |
| SNU-C2B (large intestine, adherent) |  |  | 0.872 | > 4 | 0.976 | > 20 | 0.914 | > 5.12 | 0.766 | 3.88 |
| SU8686 (pancreas, adherent) |  |  | 0.934 | > 4 | 0.981 | > 20 | 0.982 | > 5.12 | 0.907 | > 8 |
| SU-DHL-5 (B-cell lymphoma, suspension) |  |  | 0.923 | 3.53 | 0.955 | > 20 | 0.786 | 1.65 | 0.812 | 3.03 |
| SUIT-2 (pancreas, adherent) |  |  | 0.631 | 0.586 | 0.986 | > 20 | 0.861 | 4.7 | 0.915 | > 8 |
| SW13 (adrenal gland, adherent) |  |  | 0.741 | 1.24 | 0.985 | > 20 | 0.988 | > 5.12 | 0.797 | 3.85 |
| SW48 (large intestine, adherent) |  |  | 0.766 | 1.47 | 0.984 | > 20 | 0.959 | > 5.12 | 0.687 | 1.66 |
| SW156 (kidney, adherent) |  |  | 0.947 | > 4 | 0.981 | > 20 | 0.925 | > 5.12 | 0.908 | > 8 |
| SW620 (large intestine, adherent) |  |  | 0.597 | 0.446 | 0.987 | > 20 | 0.956 | > 5.12 | 0.826 | 4.1 |
| SW626 (ovary, adherent) |  |  | 0.679 | 0.874 | 0.979 | > 20 | 0.928 | > 5.12 | 0.82 | 5.71 |
| SW756 (cervix, adherent) |  |  | 0.807 | 2.54 | 0.98 | > 20 | 0.985 | > 5.12 | 0.924 | > 8 |

| Cell Line | AUC (ZM-447439) | IC50 (ZM-447439) [µM] | AUC (AZD6244) | IC50 (AZD6244) [µM] | AUC (EX-527) | IC50 (EX-527) [µM] | AUC (YM201636) | IC50 (YM201636) [µM] | AUC (AS601245) | IC50 (AS601245) [µM] |
| --- | --- | --- | --- | --- | --- | --- | --- | --- | --- | --- |
| SW780 (bladder, adherent) |  |  | 0.668 | 0.771 | 0.983 | > 20 | 0.986 | > 5.12 | 0.977 | > 8 |
| SW837 (large intestine, adherent) |  |  | 0.681 | 0.949 | 0.978 | > 20 | 0.948 | > 5.12 | 0.775 | 4.22 |
| SW900 (lung squamous cell carcinoma, adherent) |  |  | 0.888 | > 4 | 0.98 | > 20 | 0.97 | > 5.12 | 0.758 | 3.18 |
| SW948 (large intestine, adherent) |  |  | 0.973 | > 4 | 0.979 | > 20 | 0.933 | > 5.12 | 0.926 | > 8 |
| SW982 (soft tissue, adherent) |  |  | 0.73 | 1.15 | 0.985 | > 20 | 0.939 | > 5.12 | 0.625 | 1.11 |
| SW1088 (glioma, adherent) |  |  | 0.831 | 3.65 | 0.967 | > 20 | 0.93 | > 5.12 | 0.863 | > 8 |
| SW1271 (small cell lung carcinoma, adherent) |  |  | 0.66 | 0.75 | 0.984 | > 20 | 0.833 | 4.02 | 0.686 | 1.81 |
| SW1463 (large intestine, adherent) |  |  | 0.731 | 1.87 | 0.975 | > 20 | 0.978 | > 5.12 | 0.873 | > 8 |
| SW1573 (lung adenocarcinoma, adherent) |  |  | 0.874 | > 4 | 0.98 | > 20 | 0.969 | > 5.12 | 0.955 | > 8 |
| SW1710 (bladder, adherent) |  |  | 0.793 | 1.89 | 0.984 | > 20 | 0.782 | 2.21 | 0.674 | 1.55 |
| SW1783 (glioma, adherent) |  |  | 0.974 | > 4 | 0.984 | > 20 | 0.986 | > 5.12 | 0.867 | 6.05 |
| SW1990 (pancreas, adherent) |  |  | 0.826 | 3.02 | 0.976 | > 20 | 0.985 | > 5.12 | 0.931 | > 8 |
| Saos-2 (osteosarcoma, adherent) |  |  | 0.955 | > 4 | 0.981 | > 20 | 0.981 | > 5.12 | 0.84 | > 8 |
| SiHa (cervix, adherent) |  |  | 0.955 | > 4 | 0.984 | > 20 | 0.977 | > 5.12 | 0.987 | > 8 |
| T47D (breast, adherent) |  |  | 0.786 | 2.84 | 0.978 | > 20 | 0.816 | 5.08 | 0.897 | > 8 |
| T84 (large intestine, adherent) |  |  | 0.967 | > 4 | 0.989 | > 20 | 0.887 | > 5.12 | 0.744 | 2.53 |
| T98G (glioma, adherent) |  |  | 0.96 | > 4 | 0.982 | > 20 | 0.948 | > 5.12 | 0.813 | 3.92 |
